Source: publication PMC4336329 (PLoS ONE, 2015)
About 2,200 (0.71%) of roughly 310,000 compounds showed an effect of 50% or more. Effects have a minus sign here. This is one part of the list.

target: human ether-à-go-go-related gene (hERG) potassium channel (human, UniProt Q12809); test: primary screen, population patch clamp on CHO cells stably expressing hERG
Sequence (Q12809 whole entry, looked up): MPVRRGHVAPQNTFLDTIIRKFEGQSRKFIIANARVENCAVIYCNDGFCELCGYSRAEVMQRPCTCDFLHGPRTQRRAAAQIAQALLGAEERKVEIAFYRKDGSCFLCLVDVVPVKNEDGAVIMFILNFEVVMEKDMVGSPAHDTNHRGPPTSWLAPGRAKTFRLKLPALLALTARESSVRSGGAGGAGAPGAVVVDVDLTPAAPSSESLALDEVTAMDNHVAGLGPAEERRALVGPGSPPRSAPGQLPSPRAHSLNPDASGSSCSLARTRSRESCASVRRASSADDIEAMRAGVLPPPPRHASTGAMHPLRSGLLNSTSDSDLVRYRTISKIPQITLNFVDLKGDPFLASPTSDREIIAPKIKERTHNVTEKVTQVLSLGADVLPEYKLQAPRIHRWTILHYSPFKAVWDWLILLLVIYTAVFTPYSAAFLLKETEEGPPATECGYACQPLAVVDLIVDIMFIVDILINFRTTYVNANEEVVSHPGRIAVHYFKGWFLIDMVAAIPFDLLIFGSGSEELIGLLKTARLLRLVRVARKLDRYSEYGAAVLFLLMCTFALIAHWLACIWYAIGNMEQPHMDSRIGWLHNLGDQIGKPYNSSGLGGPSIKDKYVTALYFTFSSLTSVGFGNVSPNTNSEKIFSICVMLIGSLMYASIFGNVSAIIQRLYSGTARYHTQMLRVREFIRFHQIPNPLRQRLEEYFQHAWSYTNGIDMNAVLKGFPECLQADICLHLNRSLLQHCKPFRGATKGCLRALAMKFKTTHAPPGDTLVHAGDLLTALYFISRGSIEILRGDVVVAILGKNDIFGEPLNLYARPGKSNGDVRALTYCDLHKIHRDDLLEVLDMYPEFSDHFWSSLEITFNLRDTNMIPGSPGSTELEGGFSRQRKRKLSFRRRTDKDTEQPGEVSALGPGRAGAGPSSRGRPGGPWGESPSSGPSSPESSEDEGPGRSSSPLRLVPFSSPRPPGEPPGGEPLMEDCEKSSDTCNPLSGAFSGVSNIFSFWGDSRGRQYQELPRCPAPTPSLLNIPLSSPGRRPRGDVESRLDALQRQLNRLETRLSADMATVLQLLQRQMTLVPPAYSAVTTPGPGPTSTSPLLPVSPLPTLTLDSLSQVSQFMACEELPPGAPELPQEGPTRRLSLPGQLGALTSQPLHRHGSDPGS

Structure (SMILES)	hERG current change (%, negative = inhibition) at 1uM [%]
COc1ccc(NC(=O)CSc2nc3nc(C)cc(C)c3c(=O)[nH]2)cc1	14.4
CC(=O)C(=Nc1cccc(Cl)c1)NNc1ccccc1C	14.3
O=C(Nc1ccc(N2CCN(C(=O)c3ccco3)CC2)c(Cl)c1)c1cccs1	8.91
CCc1oc(C(=O)OC)cc1CSC(=N)N.Cl	8.9
O=C(CCCN1C(=O)c2cccc3cccc(c23)C1=O)Nc1ccon1	13.4
Cc1ccc(NC(=O)C(c2ccccc2)N2CCN(CC(=O)N3CCOCC3)CC2)cc1Cl (centres unmarked)	-27.1
O=C(CSc1nc(-c2ccccc2)ns1)N1CCOCC1	6.82
CN(C)CCC(=O)N1c2ccccc2Sc2ccc(C(F)(F)F)cc21.O=C(O)/C=C/C(=O)O	6.4
O=S(=O)(NCCc1csc(-c2cccnc2)n1)c1ccc2c(c1)OCCO2	8.53
COc1ccccc1N1CCN(CC(=O)c2c(C)n(C)c3ccccc23)CC1	1.42
Cc1cc(C(=O)Cn2nc(C(=O)O)c3ccccc3c2=O)c(C)n1CC(F)(F)F	9.55
COc1cc(OC)cc(C(=O)NNC(=O)c2cc3ccccc3cc2O)c1	14.4
COc1ccc(C2=C(N)c3ccccc3C2=O)cc1	15.7
CN1CCN(C(=O)c2ccccc2NC(=O)c2cccs2)CC1	3.42
COc1ccc(N2CCN(C(=O)c3cc4c(C)nc5ccccc5c4o3)CC2)cc1	0.465
Br.CC(C)(C)C(=O)Cn1c(NCCO)nc2ccccc21	6.96
CN(C)c1nc(-c2ccccc2)nc(-c2ccc(Cl)cc2)c1C#N	10.8
O=C(c1sccc1Br)N1CCN(Cc2ccc3c(c2)OCO3)CC1	8.79
COC(=O)Cn1cnc2c(nnn2-c2ccc(F)cc2)c1=O	14
COc1ccc(NS(=O)(=O)c2ccc(N)cc2)nn1	17.4
CCCn1c(N)c(C(=O)CSc2nc(C)nc3sc(C)c(C)c23)c(=O)[nH]c1=O	12.6
O=C(N/N=C/c1ccc(C(F)(F)F)cc1)c1ccc(O)cc1	14.5
CCOC(=O)N/N=C/c1cn(Cc2ccccc2Cl)c2ccccc12	4.67

Structure (SMILES)	hERG current change (%, negative = inhibition) at 1uM [%]
N#Cc1c2n(c(=S)n(-c3ccccn3)c1=O)CCCCC2	2.42
COc1ccccc1OCC(=O)NNC(=O)Nc1ccc(Cl)cc1	8.09
Cc1cc(=O)oc(C)c1C(=O)NCc1ccccc1	8.1
CCc1cc(=O)oc2c(C)c(O)c(CN3CCCCC3)cc12	3.51
Nc1nc(-c2cccnc2)nn1C(=O)CCc1ccccc1	4.3
Cc1ccc(S(=O)(=O)NC(C)C(=O)N2CCOCCOCCOCC2)cc1 (centres unmarked)	8.66
CC(C)NC(=O)C1CCN(C2CCN(Cc3nc(C(C)C)cs3)CC2)CC1	-15.6
COCCN(Cc1cc2c(C)cc(C)cc2nc1Cl)C(=O)c1ccccc1F	14.5
O=C1NCN(c2ccccc2)C12CCN(CCCC(c1ccc(F)cc1)c1ccc(F)cc1)CC2	-36.2
O=C1CCCN1CCCNC(=S)Nc1cccc2ccccc12	15.5
O=C(O)CCC1=C2c3ccccc3CCN2C(=O)CC1	7.74
O=C(Nc1ccc2nc(C3CC3)n(Cc3ccccc3)c(=O)c2c1)C1CC1	-2.74
CC(=O)c1sc(NC(=O)c2oc3ccc(F)cc3c2C)nc1C	6.91
COC(=O)NNC(=S)Nc1cc(OC)ccc1OC	-2.88
COc1ccc(C(=O)N2CCc3ccccc32)cc1S(=O)(=O)N1CCOCC1	-4.94
Cc1cccc(Cc2nnc(CCC(=O)N3CCCCC3c3nccs3)o2)c1 (centres unmarked)	5.24
N#CC1(c2ccccc2)CCC(=O)N1Cc1ccccc1 (centres unmarked)	15.8
O=C(CCNc1ccc(Cc2ccncc2)cc1)c1ccc([N+](=O)[O-])cc1	6.69
COc1ccc(C(OC(=O)c2ccco2)C(=O)NC2CCCCC2)cc1OC (centres unmarked)	15.1
CC1CC(C)CN(C(=O)COC(=O)CCc2nc3ccccc3c(=O)[nH]2)C1 (centres unmarked)	11.3
CC(=O)N1c2ccc(S(=O)(=O)NCCC(=O)Nc3ncccc3C)cc2CC1C (centres unmarked)	10.3
CC(=O)Oc1ccc2cc(-c3ccccc3)c(=O)oc2c1	17.6
CCOC(=O)CNC(=O)CN1C(=O)CCSc2ccccc21	14.3

Structure (SMILES)	hERG current change (%, negative = inhibition) at 1uM [%]
Cc1ccc(C(=O)Nc2cccc3ncccc23)cc1[N+](=O)[O-]	7.37
COc1ccc(NS(=O)(=O)c2cc(NC(=O)CC3CCCC3)ccc2N2CCOCC2)cc1	2.38
Cc1ccc(NC(=O)C(c2ccccc2)N2CCN(CC(=O)N3CCOCC3)CC2)cc1 (centres unmarked)	-8.48
O=C(NC1CCCCC1)C(c1ccc(O)c(O)c1)N(C(=O)Cn1nnc2ccccc21)c1cccc(O)c1 (centres unmarked)	16.1
CN(C)/C=N/N(C)c1ncccc1[N+](=O)[O-]	11.6
CCNC(=S)NS(=O)(=O)c1ccc(C)cc1	0.48
CN(CC(=O)N1CCN(Cc2ccccc2)CC1)C(=O)Cc1cccc2ccccc12	1.13
CN1C(=O)N(c2ccc(Cl)cc2)C(C)(O)CC1(C)C (centres unmarked)	2.58
CCc1ccc2[nH]c(=O)c(C(c3nnnn3Cc3ccc(OC)cc3)N3CCOCC3)cc2c1 (centres unmarked)	-13
O=C(CN1C(=O)C2CC=CCC2C1=O)Nc1ccc(OC(F)(F)F)cc1 (centres unmarked)	2.45
CC(=O)Nc1ccc(S(=O)(=O)Nc2nc3ccccc3nc2Nc2ccc(O)c(C(=O)O)c2)cc1	12.6
O=C1CC(c2ccco2)CC2=C1C1c3ccccc3C(=O)N1c1ccccc1N2 (centres unmarked)	2.82
Fc1ccc(-c2csc(NC(=S)Nc3ccccc3)n2)cc1	13
CCOc1ccc(C(=O)N/N=C(/C)C2C(=O)c3ccccc3C2=O)cc1	13
c1ccc(-n2nnnc2NCCCN2CCOCC2)cc1	6.03
O=C(NCCO)c1scc2c1OCCO2	15.9
CC(C)OP(=O)(OC(C)C)C(O)c1cccnc1 (centres unmarked)	15.1
COc1cccc(CN2CCN(C(=O)c3ccc(-c4ccccc4)cc3)CC2)c1OC.O=C(O)C(=O)O	7.67
CC(OC(=O)Nc1cccc(Cl)c1)C(=O)O (centres unmarked)	15.5
O=C(/C=C/Nc1ccc(S(=O)(=O)Nc2ncccn2)cc1)c1cccs1	11
Fc1ccc(C(CCCn2nnc(-c3cccnc3)n2)c2ccc(F)cc2)cc1	9.02
COCCNC(=O)c1onc(CSc2cc(C)cc(C)c2)c1C(=O)NCCOC	6.78
COc1cccc(CNC(=O)CCNS(=O)(=O)c2ccc3c(c2)oc(=O)n3C)c1	14.1

Structure (SMILES)	hERG current change (%, negative = inhibition) at 1uM [%]
Cc1cc(C)n(CCNS(=O)(=O)c2ccc(C)c(C)c2)n1	13.2
C=CCS(=O)(=O)N1CCCC(C(=O)c2cccc(Cl)c2)C1 (centres unmarked)	14.2
COc1cccc(CN2CCN(Cc3cc(OC)c(OC)cc3OC)CC2)c1.O=C(O)C(=O)O	-11.4
CCCc1cc(=O)oc2cc(OCC(=O)NCCCN3CCCC3=O)ccc12	17
CCN(CC)C(=O)Oc1ccc2c(=O)c(-c3ccccc3)coc2c1	-3.74
NC(Cc1ccccc1)c1nc(-c2ccccc2)no1 (centres unmarked)	3.39
O=C(CSc1nccn1Cc1ccccc1)Nc1ccccc1	14.5
Cc1ccc(S(=O)(=O)N(C)C)cc1NC(=O)COC(=O)C1CCN(S(=O)(=O)c2cccs2)CC1	-58.4
CCN(CC)CCN1C(=O)C(=O)/C(=C(/O)c2ccc3c(c2)CC(C)O3)C1c1ccc(OC)cc1 (centres unmarked)	9.43
Cc1ccccc1-c1nc(CN2CCC(C(=O)O)CC2)c(C)o1	-1.68
CCn1c(SCc2cccc(F)c2)nc2c(c1=O)SCC2	0.51
CC(C)OC(=O)CCC(=O)Nc1nc2ccccc2s1	9.08
O=C(COC(=O)C1COc2ccccc2O1)Nc1ccc2c(c1)CCC2 (centres unmarked)	20.6
Cc1cc(C(C#N)c2ccccc2F)n2ncnc2n1 (centres unmarked)	13.7
COC(=O)[C@@]1(Cc2ccc(F)cc2)[C@H]2c3cc(C(=O)N4CCCC4)n(CCc4ccccn4)c3C[C@H]2CN1C(=O)c1ccccc1	-3.4
COc1ccc(C=Nc2cccc3c(=O)[nH][nH]c(=O)c23)c2ccccc12	4.8
COc1ccc(-c2[nH]ncc2/C=C(\C#N)C(=O)NC2CC2)cc1	8.58
CCN1CCN(C(=O)Cn2nc(C)n3c(cc4c(OC)cccc43)c2=O)CC1	9.75
COC(=O)C1=C(C)N(C)C(=O)NC1c1ccc(C)cc1 (centres unmarked)	4.16
COc1ccc(NC(=O)C(NS(=O)(=O)c2cccs2)C(C)C)cc1Cl (centres unmarked)	-5.41
